{"source": "PubChem BioAssay AID485344", "about": "(National Center for Advancing Translational Sciences (NCATS), 2010)", "note": "About 6,900 (2%) of roughly 340,000 compounds were called active. No stated cut-off is given here; in the data, active means inhibition above about 30%; inactive means below that, where a call was filed. The entries are a selection whose mix differs from that of the whole data set. Where no call is shown, the source filed none.", "data": [{"molecular_target": "D(2) dopamine receptor (Homo sapiens) (UniProt P14416)", "sequence (P14416 whole entry, looked up)": "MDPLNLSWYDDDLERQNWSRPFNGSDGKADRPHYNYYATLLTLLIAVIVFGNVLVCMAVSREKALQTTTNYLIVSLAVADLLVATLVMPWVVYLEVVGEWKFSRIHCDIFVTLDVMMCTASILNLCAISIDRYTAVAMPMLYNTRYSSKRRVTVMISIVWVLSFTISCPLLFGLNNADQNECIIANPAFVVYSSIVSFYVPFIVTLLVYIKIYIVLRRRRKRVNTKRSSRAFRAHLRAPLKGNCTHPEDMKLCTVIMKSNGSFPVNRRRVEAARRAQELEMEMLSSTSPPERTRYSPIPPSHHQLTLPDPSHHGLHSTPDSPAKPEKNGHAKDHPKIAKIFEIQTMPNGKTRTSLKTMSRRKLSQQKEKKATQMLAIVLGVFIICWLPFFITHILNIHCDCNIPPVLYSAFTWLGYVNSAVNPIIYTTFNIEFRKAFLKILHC", "assay": "HTS Assay for Allosteric Antagonists of the Human D2 Dopamine Receptor: Primary Screen for Antagonists; further: 0% is about no effect", "conditions": "HEK293 TREx D2 cells, calcium flux, dopamine EC80; at 10 µM; stronger effect = higher value", "procedure,_shortened": "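Read-out: kinetic calcium fluorescence (1 cycle/s) in inducible HEK293 T-REx D2 cells after an EC80 dopamine addition that followed 180 s compound preincubation. Loss of the dopamine response indicates antagonism.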", "values": [{"compound": "CC(=O)Nc1ccc(S(=O)(=O)N2CCN(c3ccc(C)c(C)c3)CC2)cc1", "inhibition": "15.8%"}, {"compound": "Cc1cc(N2CCN(C)CC2)nc2ccc(NC(=O)c3ccccc3F)cc12", "inhibition": "-4.28%"}, {"compound": "CCc1ccc(NC(=O)CSC2=Nc3ccccc3C3=NC(CC(=O)NCc4cccs4)C(=O)N23)cc1", "note": "(centres undefined)", "inhibition": "2.59%"}, {"compound": "COc1cccc(N2CCN(C(=O)c3ccc4c(Cl)c5c(nc4c3)CCCC5)CC2)c1", "inhibition": "5.98%"}, {"compound": "CCC(=O)N1CCc2cc(Br)cc(S(=O)(=O)N3CCC(C(=O)Nc4cccc(C)c4)CC3)c21", "inhibition": "1.06%"}, {"compound": "Cc1cc2c(cc3c(SCc4cccc(Cl)c4)nnc(C)n32)o1", "inhibition": "5%"}, {"compound": "CCC(Cn1nnc2ccccc2c1=O)NC(=O)Nc1cc(OC)cc(OC)c1", "note": "(centres undefined)", "inhibition": "1.14%"}, {"compound": "O=C(NCc1ccccc1)c1ccc(CSc2nc3cccnc3n2Cc2ccccc2)cc1", "inhibition": "-14.1%"}, {"compound": "Cn1cc(S(=O)(=O)c2ccccc2)c(=O)c2cc(F)c(N3CCCC3)cc21", "inhibition": "8.38%"}, {"compound": "COC(=O)C1=C(O)/C(=C\\c2cc(C)n(-c3ccccc3C)c2C)N=C1C", "inhibition": "active: 32.1%"}, {"compound": "Fc1ccc(N2CCN(c3nnnn3-c3ccccc3)CC2)cc1", "inhibition": "active: 50.2%"}, {"compound": "CCc1cccc(C)c1NC(=O)c1cc2ccccc2o1", "inhibition": "-12.8%"}, {"compound": "CCc1ccc2nc(N3CCC(C(=O)NCCC(C)C)CC3)sc2c1", "inhibition": "-1.45%"}, {"compound": "CCCCNC(=O)c1cnc2c(-c3ccc(OCC)c(OCC)c3)c(C)nn2c1-c1ccccc1", "inhibition": "-5.41%"}, {"compound": "CCN(Cc1ccccc1)S(=O)(=O)c1ccc(N2CCCCS2(=O)=O)cc1", "inhibition": "-25.9%"}, {"compound": "O=C(CCS(=O)(=O)c1cc2c(cc1Cl)NC(=O)CO2)NCc1ccccc1", "inhibition": "28.2%"}, {"compound": "O=C1CCSC2(C(=O)N(Cc3ccccc3)c3ccccc32)N1c1ccccc1", "note": "(centres undefined)", "inhibition": "8.52%"}, {"compound": "CCOC(=O)c1c(C)n(-c2ccc(C)cc2)c2ccc(O)c(CN(C)C)c12", "inhibition": "active: 39.7%"}, {"compound": "CCCCOc1ccc(S(=O)(=O)n2nc(C)c(S(=O)(=O)N3CCCCCC3)c2C)cc1", "inhibition": "15%"}, {"compound": "COc1cccc2cc(-c3nc4ccc(C)cc4[nH]3)c(=O)oc12", "inhibition": "26.7%"}, {"compound": "CC(=O)N1c2ccc(S(=O)(=O)NCC3CCC(C(=O)Nc4cccc(C)c4)CC3)cc2CC1C", "note": "(centres undefined)", "inhibition": "-8.88%"}, {"compound": "Cc1ccc(C(=O)NCc2ccccc2CN2CCCC2)cc1S(=O)(=O)N1CCOCC1", "inhibition": "active: 51.5%"}, {"compound": "Cc1cc(S(=O)(=O)NCCc2csc(-c3cccc(F)c3)n2)ccc1F", "inhibition": "21.3%"}, {"compound": "Cc1ccc(NC(=O)C(=O)NCC(c2ccc3c(c2)OCO3)N2CCN(C)CC2)cc1C", "note": "(centres undefined)", "inhibition": "26.1%"}, {"compound": "Cc1c(C(=O)Oc2ccc(Br)cc2)sc2ncn(Cc3ccccc3F)c(=O)c12", "inhibition": "-26.6%"}, {"compound": "COc1ccc(-c2cc(C(=O)NCc3ccc(C)cc3)c3cc(C(C)C)ccc3n2)cc1", "inhibition": "6.26%"}, {"compound": "CCN(CC)S(=O)(=O)c1ccc2c(c1)c(=O)c(C(=O)N1CCN(c3ccccc3OC)CC1)cn2C", "inhibition": "-7.78%"}, {"compound": "CC(C)CCNC(=O)Cn1cc(S(=O)(=O)Cc2ccc(F)cc2)c2ccccc21", "inhibition": "3.79%"}, {"compound": "COc1cc(NC(=O)Nc2c[nH]c(=O)[nH]c2=O)cc(OC)c1OC", "inhibition": "1.21%"}, {"compound": "Cc1cc(C(C)(C)C)ccc1OC(=O)C1=CC=CN2CCS(=O)(=O)N=C12", "inhibition": "active: 40.2%"}, {"compound": "COc1ccc(C(=O)Nc2nc(-c3nnn(-c4cc(OC)ccc4OC)c3C)ns2)cc1", "inhibition": "-11.7%"}, {"compound": "Cc1ccc(OCc2cc(=O)n3c(-c4ccccc4)csc3n2)cc1", "inhibition": "0.866%"}, {"compound": "CCc1ccc(CNC(=O)c2cc3cc4ccc(OC)cc4nc3o2)cc1", "inhibition": "-2.87%"}, {"compound": "CN(C(=O)CSc1nc2ccc(NC(=O)c3cccs3)cc2s1)c1ccccc1", "inhibition": "17.2%"}, {"compound": "CCOc1ccc(NC(=O)CSc2nccn2C2CCCC2)cc1", "inhibition": "16.3%"}, {"compound": "Cc1ccc(CN2C(=O)CN(C3CCCCCC3)C(=O)C2c2ccc(F)cc2)cc1", "note": "(centres undefined)", "inhibition": "11.2%"}, {"compound": "COC(=O)c1cccc(CN2C(=O)SC(Nc3ccccc3C)C2=O)c1", "note": "(centres undefined)", "inhibition": "1.9%"}, {"compound": "CCc1ccc(CNC(=O)C2CCN(C(=O)c3ccc(-n4c(C)cc5ccccc54)s3)CC2)cc1", "inhibition": "7.57%"}, {"compound": "COc1ccc(-n2c(=O)c3c4c(sc3n(CC(=O)C(C)(C)C)c2=O)CCCC4)c(OC)c1", "inhibition": "-13.3%"}, {"compound": "Fc1ccc(-c2nnn3c2nc(NCc2ccccc2)c2ccccc23)cc1", "inhibition": "-11.6%"}, {"compound": "CCOc1cc(C(=O)Nc2ccc(-c3nnc4n3CCCCC4)cc2)cc(OCC)c1OCC", "inhibition": "-15.1%"}, {"compound": "CC(C)OCCCNC(=O)c1ccc(CN2CCc3ccccc3C2)cc1", "inhibition": "active: 44.1%"}, {"compound": "Cn1c(=O)n(C)c2cc(N3CCOCC3)c(NS(=O)(=O)c3ccc(F)cc3)cc21", "inhibition": "6.6%"}, {"compound": "O=C1CN(C(=O)c2c(F)cccc2Cl)C(c2ccc(F)cc2)c2cc(Br)ccc2N1", "note": "(centres undefined)", "inhibition": "-8.63%"}, {"compound": "Cc1ccc2c(c1)c1c(c(=O)n(-c3ccccc3)c(=O)n1CC(=O)c1ccc(Cl)cc1)n2C", "inhibition": "3.89%"}, {"compound": "Cc1ccc(-c2ccc(CCC(=O)O)n2-c2ccc(C)c(Cl)c2)cc1", "inhibition": "-15.5%"}, {"compound": "COc1ccc(Cl)cc1C(=O)NCC(c1ccc(N(C)C)cc1)N1CCCC1", "note": "(centres undefined)", "inhibition": "-3.22%"}, {"compound": "O=C(Cn1c(-c2cccs2)cc2cc(Cl)ccc21)N1CCCCC1", "inhibition": "4.37%"}, {"compound": "Cc1ccc(C)c(NC(=O)Cn2c(=O)n(CCCS(=O)(=O)C3CCCCC3)c(=O)c3ccccc32)c1", "inhibition": "7.77%"}, {"compound": "COCCCNC(=O)CSc1nc2c(sc3ccccc32)c(=O)n1CCc1ccc(OC)c(OC)c1", "inhibition": "2.79%"}, {"compound": "COc1ccccc1C(=O)NC1(C(F)(F)F)C(=O)Nc2c1c(=O)[nH]c(=O)n2-c1ccc(F)cc1", "note": "(centres undefined)", "inhibition": "14.5%"}, {"compound": "CCOc1ccccc1NC(=O)CCc1c(C)nn(-c2ccc(N3CCCCC3)nn2)c1C", "inhibition": "1.15%"}, {"compound": "Cc1cccc(Cn2c(-c3cccc(Br)c3)nc3ccccc32)c1", "inhibition": "17.9%"}, {"compound": "CN(C)CCNC(=O)Cn1ccc2cc(S(=O)(=O)N3CCCCCC3)ccc21", "inhibition": "-1.45%"}, {"compound": "COc1ccc(CNC(=O)CSc2ncc3c(n2)-c2ccc(Cl)cc2N(Cc2ccccc2)S3(=O)=O)cc1", "inhibition": "5.85%"}, {"compound": "Cc1cc(Cl)ccc1OCC(=O)N(Cc1ccco1)Cc1ccccc1F", "inhibition": "-12.2%"}, {"compound": "COc1ccc(Cl)cc1NC(=O)c1cn(C2CCCC2)c(=O)c2c1c1ccccc1n2C", "inhibition": "-18%"}, {"compound": "O=C(Nc1ccc(F)cc1)c1ccc2c(=O)n3c(nc2c1)CCCCC3", "inhibition": "-14%"}, {"compound": "COc1ccc(OC)c(C2CC(=O)Oc3c2c(=O)n(C)c2ccccc32)c1", "note": "(centres undefined)", "inhibition": "14.8%"}, {"compound": "O=C(NCC(c1cccs1)S(=O)(=O)c1ccccc1)c1ccc(C(F)(F)F)cc1", "note": "(centres undefined)", "inhibition": "8.47%"}, {"compound": "Cc1cccc(N(CC(=O)Nc2ccccc2C(F)(F)F)S(=O)(=O)c2ccccc2)c1C", "inhibition": "22%"}, {"compound": "Cc1nn2c(C)c(C(=O)NC(C)c3ccccc3)cnc2c1-c1ccc(F)cc1", "note": "(centres undefined)", "inhibition": "-5.26%"}, {"compound": "CCOc1ccc(NC(=O)Cn2cnc3sc(C)c(S(=O)(=O)N4CCN(c5ccccc5OC)CC4)c3c2=O)cc1", "inhibition": "11.1%"}, {"compound": "COc1ccc(NC(=O)c2ccco2)cc1NC(=O)C(C)(C)Oc1ccc(Cl)cc1", "inhibition": "12.5%"}, {"compound": "CCC(=O)N1CCCc2cc(S(=O)(=O)N3CCC(C(=O)NCc4ccc(F)cc4)CC3)ccc21", "inhibition": "6.6%"}, {"compound": "COc1ccc(C)cc1NC(=O)c1cc2c(=O)n3cccc(C)c3nc2s1", "inhibition": "-7.01%"}, {"compound": "COc1ccc(Cl)cc1NC(=S)N1CCN(c2ccccn2)CC1", "inhibition": "active: 34.9%"}, {"compound": "Cc1cccc(C)c1-n1ncc(C(=O)O)c1C1CCN(C(=O)OC(C)(C)C)CC1", "inhibition": "-4.08%"}, {"compound": "COC(=O)c1cnn(-c2ccc(C)c(C)c2)c1-n1cccc1", "inhibition": "active: 30.3%"}, {"compound": "COc1ccc(-c2noc(-c3ccc(N4CCCC4)c([N+](=O)[O-])c3)n2)cc1OC", "inhibition": "3.69%"}, {"compound": "CCOc1cc(C2NC(=O)c3c(sc4c3CCN(C)C4)N2)ccc1OC(=O)c1ccc(Br)cc1", "note": "(centres undefined)", "inhibition": "1.24%"}, {"compound": "Cc1ccc(C)c(Nc2nc(-c3ccncc3)nc3ccccc23)c1", "inhibition": "active: 35.8%"}, {"compound": "COc1cccc(/C=C/c2nc(C#N)c(N3CCC(C(N)=O)CC3)o2)c1", "inhibition": "22.9%"}, {"compound": "Cc1ccc(C2C=C(c3ccccc3)Nc3nc(NS(=O)(=O)c4ccccc4)nn32)cc1", "note": "(centres undefined)", "inhibition": "-16.1%"}, {"compound": "CCOc1ccc(CCNC(=O)c2cn(-c3ccc(OC)cc3)c(=O)c3ccccc23)cc1OCC", "inhibition": "-8.46%"}, {"compound": "COc1ccc(Br)cc1S(=O)(=O)Nc1cc(-c2cn3ccccc3n2)ccc1C", "inhibition": "1.63%"}, {"compound": "COc1ccc(NC(=O)Cn2c(=O)n(CCC(=O)NCC3CCCO3)c(=O)c3cc(OC)c(OC)cc32)cc1", "note": "(centres undefined)", "inhibition": "-4.45%"}, {"compound": "CN(Cc1ccccc1)C(=O)c1ccc(CSc2nc3cccnc3n2Cc2ccccc2F)cc1", "inhibition": "-15.3%"}, {"compound": "COc1ccccc1Nc1sc(C(=O)c2ccc(F)cc2)c(N)c1S(=O)(=O)c1ccc(C)cc1", "inhibition": "-0.204%"}, {"compound": "Cc1cccc(CC(=O)N2CC(=O)Nc3ccc(Br)cc3C2c2ccc(F)cc2)c1", "note": "(centres undefined)", "inhibition": "0.739%"}, {"compound": "CCc1cccc(-n2nnc(-c3nsc(NC(=O)c4cccc(OC)c4)n3)c2C)c1", "inhibition": "0.809%"}, {"compound": "O=C(Cn1ncc2c3ccccc3n(Cc3ccccc3F)c2c1=O)NCc1ccccc1Cl", "inhibition": "7.72%"}, {"compound": "Cc1cc2c(cc1S(=O)(=O)Nc1cccc(C#N)c1)OCC(=O)N2", "inhibition": "-6.18%"}, {"compound": "Cc1ccc(C(=O)N/C(=C\\c2sccc2C)C(=O)NCCCN2CCOCC2)cc1", "inhibition": "active: 31.3%"}, {"compound": "COc1ccc(-n2nc(C(=O)N3CCCCC3C)c3c4ccccc4n(C)c3c2=O)cc1Cl", "note": "(centres undefined)", "inhibition": "12.6%"}, {"compound": "N#Cc1ccc(-c2cccs2)nc1SCc1ccc(Br)cc1", "inhibition": "-2.92%"}, {"compound": "COc1cccc(C(=O)Nc2ccccc2C(=O)OCc2cc(=O)n3c4c(sc3n2)CCCC4)c1", "inhibition": "4.2%"}, {"compound": "COc1ccc(CNC(=O)CN(C)S(=O)(=O)c2ccc3nc(C)sc3c2)cc1", "inhibition": "1.42%"}, {"compound": "CCOC(=O)c1ccc(NC(=O)Cn2c(=O)cc(C)c3c(C)nn(-c4ccc(CC)cc4)c32)cc1", "inhibition": "0.409%"}, {"compound": "CC(C)N(C(=O)CSc1cn(CC(=O)N2CCCCCC2)c2ccccc12)C(C)C", "inhibition": "2.68%"}, {"compound": "Cc1coc2c(C)c3oc(=O)c(CCC(=O)NCCc4ccccc4F)c(C)c3cc12", "inhibition": "6.96%"}, {"compound": "CCc1ccc(CNC(=O)CCc2c(C)nn(-c3ccc(N4CCCC4)nn3)c2C)cc1", "inhibition": "17.6%"}, {"compound": "CC(C)c1nnc(N2C(=O)c3oc4ccccc4c(=O)c3C2c2ccccc2F)s1", "note": "(centres undefined)", "inhibition": "-0.201%"}, {"compound": "CCN(CC)c1cc(C)c2cc(NC(=O)/C=C/c3cc(OC)c(OC)c(OC)c3)ccc2n1", "inhibition": "-8.12%"}]}]}
